The supplement of paper PMC8728848
Some of the results follow.

Key:
Test in all cases: glycan array binding signal (z-score within array); higher = stronger binding
Conditions in all cases: glycan notation: IUPAC condensed, linker removed
[1] = target: Fuc(a1-2)[GalNAc(a1-3)]Gal(b1-4)Glc
In short: (§1)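 Glycan array data were curated from 3228 arrays in the Consortium for Functional Glycomics database and kept only where the protein sequence was available. Glycan names were converted to IUPAC-condensed notation, and columns mapping to the same glycan were averaged. The binding signal is a within-array Z-score, averaged across arrays of the same protein sequence at different concentrations or buffers and across linkers. Negative Z-scores can be read as non-binding.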

[2] = target: Fuc(a1-2)[GalNAc(a1-3)]Gal(b1-4)GlcNAc
In short: as §1

[3] = target: Fuc(a1-2)[GalNAc(a1-3)]Gal(b1-4)GlcNAc(b1-2)Man
In short: as §1

[4] = target: Fuc(a1-2)[GalNAc(a1-3)]Gal(b1-4)GlcNAc(b1-2)Man(a1-3)[Fuc(a1-2)[GalNAc(a1-3)]Gal(b1-4)GlcNAc(b1-2)Man(a1-6)]Man(b1-4)GlcNAc(b1-4)GlcNAc
In short: as §1

[5] = target: Fuc(a1-2)[GalNAc(a1-3)]Gal(b1-4)GlcNAc(b1-2)Man(a1-3)[Fuc(a1-2)[GalNAc(a1-3)]Gal(b1-4)GlcNAc(b1-2)Man(a1-6)]Man(b1-4)GlcNAc(b1-4)[Fuc(a1-6)]GlcNAc
In short: as §1

[6] = target: Fuc(a1-2)[GalNAc(a1-3)]Gal(b1-4)GlcNAc(b1-3)Gal(b1-4)GlcNAc
In short: as §1

[7] = target: Fuc(a1-2)[GalNAc(a1-3)]Gal(b1-4)GlcNAc(b1-3)Gal(b1-4)GlcNAc(b1-3)Gal(b1-4)GlcNAc
In short: as §1

[8] = target: Fuc(a1-2)[GalNAc(a1-3)]Gal(b1-4)GlcNAc(b1-3)GalNAc
In short: as §1

[9] = target: Fuc(a1-2)[GalNAc(a1-3)]Gal(b1-4)GlcNAc(b1-3)[Fuc(a1-2)[GalNAc(a1-3)]Gal(b1-4)GlcNAc(b1-6)]GalNAc
In short: as §1

[10] = target: Fuc(a1-2)[GalNAc(a1-3)]Gal(b1-4)GlcNAc(b1-6)GalNAc
In short: as §1

[11] = target: Fuc(a1-2)[GalNAc(a1-3)]Gal(b1-4)[Fuc(a1-3)]GlcNAc
In short: as §1

[12] = target: Fuc(a1-2)[GalNAc(a1-3)]Gal(b1-4)[Fuc(a1-3)]GlcNAc(b1-3)GalNAc
In short: as §1

[13] = target: Fuc(a1-2)[GalNAc(a1-4)]Gal(b1-4)GlcNAc
In short: as §1

[14] = target: Fuc(a1-2)[GalNAc(b1-3)]Gal
In short: as §1

Fuc(a1-3)GlcNAc = target: Fuc(a1-3)GlcNAc
In short: as §1

[15] = target: Fuc(a1-3)[Gal(b1-4)]Glc6S
In short: as §1

[16] = target: Fuc(a1-3)[Gal(b1-4)]GlcNAc
In short: as §1

[17] = target: Fuc(a1-3)[Gal(b1-4)]GlcNAc(b1-2)Man
In short: as §1

[18] = target: Fuc(a1-3)[Gal(b1-4)]GlcNAc(b1-2)Man(a1-3)[Fuc(a1-3)[Gal(b1-4)]GlcNAc(b1-2)Man(a1-6)]Man(b1-4)GlcNAc(b1-4)GlcNAc
In short: as §1

[19] = target: Fuc(a1-3)[Gal(b1-4)]GlcNAc(b1-2)Man(a1-3)[Fuc(a1-3)[Gal(b1-4)]GlcNAc(b1-2)Man(a1-6)]Man(b1-4)GlcNAc(b1-4)[Fuc(a1-6)]GlcNAc
In short: as §1

[20] = target: Fuc(a1-3)[Gal(b1-4)]GlcNAc(b1-3)Gal(b1-3)[Fuc(a1-4)]GlcNAc
In short: as §1

[21] = target: Fuc(a1-3)[Gal(b1-4)]GlcNAc(b1-3)GalNAc
In short: as §1

[22] = target: Fuc(a1-3)[Gal(b1-4)]GlcNAc(b1-4)Gal(b1-4)[Fuc(a1-3)]GlcNAc
In short: as §1

[23] = target: Fuc(a1-3)[Gal(b1-4)]GlcNAc(b1-4)Gal(b1-4)[Fuc(a1-3)]GlcNAc(b1-4)Gal(b1-4)[Fuc(a1-3)]GlcNAc
In short: as §1

[24] = target: Fuc(a1-3)[Gal(b1-4)]GlcNAc(b1-6)GalNAc
In short: as §1

[25] = target: Fuc(a1-3)[Gal(b1-4)]GlcNAc(b1-6)[Gal(b1-3)GlcNAc(b1-3)]Gal(b1-4)Glc
In short: as §1

[26] = target: Fuc(a1-3)[Gal(b1-4)]GlcNAc6S
In short: as §1

[27] = target: Fuc(a1-3)[Gal3S(b1-4)]Glc
In short: as §1

[28] = target: Fuc(a1-3)[Gal3S(b1-4)]GlcNAc
In short: as §1

[29] = target: Fuc(a1-3)[Gal3S(b1-4)]GlcNAc6S
In short: as §1

[30] = target: Fuc(a1-3)[GalNAc(b1-4)]GlcNAc
In short: as §1

[31] = target: Fuc(a1-3)[GalNAc(b1-4)]GlcNAc6S
In short: as §1

Fuc(a1-4)GlcNAc = target: Fuc(a1-4)GlcNAc
In short: as §1

Fuc(b1-3)GlcNAc = target: Fuc(b1-3)GlcNAc
In short: as §1

Gal(a1-2)Gal = target: Gal(a1-2)Gal
In short: as §1

Gal(a1-3)Gal = target: Gal(a1-3)Gal
In short: as §1

Gal(a1-3)Gal(b1-3)GlcNAc = target: Gal(a1-3)Gal(b1-3)GlcNAc
In short: as §1

[32] = target: Gal(a1-3)Gal(b1-3)GlcNAc(b1-2)Man
In short: as §1

[33] = target: Gal(a1-3)Gal(b1-3)GlcNAc(b1-2)Man(a1-3)[Gal(a1-3)Gal(b1-3)GlcNAc(b1-2)Man(a1-6)]Man(b1-4)GlcNAc(b1-4)GlcNAc
In short: as §1

[34] = target: Gal(a1-3)Gal(b1-3)GlcNAc(b1-3)GalNAc
In short: as §1

[35] = target: Gal(a1-3)Gal(b1-3)GlcNAc(b1-6)GalNAc
In short: as §1

[36] = target: Gal(a1-3)Gal(b1-3)[Fuc(a1-4)]GlcNAc(b1-2)Man(a1-3)[Gal(a1-3)Gal(b1-3)[Fuc(a1-4)]GlcNAc(b1-2)Man(a1-6)]Man(b1-4)GlcNAc(b1-4)GlcNAc
In short: as §1

Gal(a1-3)Gal(b1-4)Glc = target: Gal(a1-3)Gal(b1-4)Glc
In short: as §1

Gal(a1-3)Gal(b1-4)GlcNAc = target: Gal(a1-3)Gal(b1-4)GlcNAc
In short: as §1

[37] = target: Gal(a1-3)Gal(b1-4)GlcNAc(b1-2)Man
In short: as §1

[38] = target: Gal(a1-3)Gal(b1-4)GlcNAc(b1-2)Man(a1-3)[Gal(a1-3)Gal(b1-4)GlcNAc(b1-2)Man(a1-6)]Man(b1-4)GlcNAc(b1-4)GlcNAc
In short: as §1

[39] = target: Gal(a1-3)Gal(b1-4)GlcNAc(b1-3)GalNAc
In short: as §1

[40] = target: Gal(a1-3)Gal(b1-4)GlcNAc(b1-6)GalNAc
In short: as §1

[41] = target: Gal(a1-3)Gal(b1-4)[Fuc(a1-3)]GlcNAc
In short: as §1

[42] = target: Gal(a1-3)Gal(b1-4)[Fuc(a1-3)]GlcNAc(b1-2)Man(a1-3)[Gal(a1-3)Gal(b1-4)[Fuc(a1-3)]GlcNAc(b1-2)Man(a1-6)]Man(b1-4)GlcNAc(b1-4)GlcNAc
In short: as §1

Gal(a1-3)GalNAc = target: Gal(a1-3)GalNAc
In short: as §1

[43] = target: Gal(a1-3)[Gal(a1-4)]Gal(b1-4)GlcNAc
In short: as §1

[44] = target: Gal(a1-4)Gal(b1-3)GlcNAc(b1-2)Man(a1-3)[Gal(a1-4)Gal(b1-3)GlcNAc(b1-2)Man(a1-6)]Man(b1-4)GlcNAc(b1-4)GlcNAc
In short: as §1

Gal(a1-4)Gal(b1-4)Glc = target: Gal(a1-4)Gal(b1-4)Glc
In short: as §1

Gal(a1-4)Gal(b1-4)GlcNAc = target: Gal(a1-4)Gal(b1-4)GlcNAc
In short: as §1

[45] = target: Gal(a1-4)Gal(b1-4)GlcNAc(b1-2)Man(a1-3)[Gal(a1-4)Gal(b1-4)GlcNAc(b1-2)Man(a1-6)]Man(b1-4)GlcNAc(b1-4)GlcNAc
In short: as §1

[46] = target: Gal(a1-4)Gal(b1-4)GlcNAc(b1-3)Gal(b1-4)Glc
In short: as §1

Gal(a1-4)GlcNAc = target: Gal(a1-4)GlcNAc
In short: as §1

Gal(a1-6)Glc = target: Gal(a1-6)Glc
In short: as §1

Gal(b1-2)Gal = target: Gal(b1-2)Gal
In short: as §1

Gal(b1-3)Gal = target: Gal(b1-3)Gal
In short: as §1

Gal(b1-3)Gal(b1-4)GlcNAc = target: Gal(b1-3)Gal(b1-4)GlcNAc
In short: as §1

Gal(b1-3)GalNAc = target: Gal(b1-3)GalNAc
In short: as §1

[47] = target: Gal(b1-3)GalNAc(a1-3)[Fuc(a1-2)]Gal(b1-4)Glc
In short: as §1

[48] = target: Gal(b1-3)GalNAc(a1-3)[Fuc(a1-2)]Gal(b1-4)GlcNAc
In short: as §1

Gal(b1-3)GalNAc(b1-3)Gal = target: Gal(b1-3)GalNAc(b1-3)Gal
In short: as §1

[49] = target: Gal(b1-3)GalNAc(b1-3)Gal(a1-4)Gal(b1-4)Glc
In short: as §1

[50] = target: Gal(b1-3)GalNAc(b1-4)Gal(b1-4)Glc
In short: as §1

[51] = target: Gal(b1-3)GalNAc(b1-4)[Neu5Ac(a2-3)]Gal(b1-4)Glc
In short: as §1

Gal(b1-3)GlcNAc = target: Gal(b1-3)GlcNAc
In short: as §1

[52] = target: Gal(b1-3)GlcNAc(a1-3)Gal(b1-4)GlcNAc
In short: as §1

[53] = target: Gal(b1-3)GlcNAc(a1-6)Gal(b1-4)GlcNAc
In short: as §1

Gal(b1-3)GlcNAc(b1-2)Man = target: Gal(b1-3)GlcNAc(b1-2)Man
In short: as §1

[54] = target: Gal(b1-3)GlcNAc(b1-2)Man(a1-3)[Gal(b1-3)GlcNAc(b1-2)Man(a1-6)]Man(b1-4)GlcNAc(b1-4)GlcNAc
In short: as §1

[55] = target: Gal(b1-3)GlcNAc(b1-2)Man(a1-3)[Gal(b1-3)GlcNAc(b1-2)Man(a1-6)]Man(b1-4)GlcNAc(b1-4)[Fuc(a1-6)]GlcNAc
In short: as §1

Measured: glycan array binding signal (z-score)

B1: Fm1D (Escherichia coli) (protein)
chain: FSCNVDGGSSIGAGTTSVYVNLDPVIQPGQNLVVDLSQHISCWNDYGGWYDTDHINLVQGSAFAGSLQSYKGSLYWNNVTYPFPLTTNTNVLDIGDKTPMPLPLKLYITPVGAAGGVVIKAGEVIARIHMYKIATLGSGNPRNFTWNIISNNSVVMPTHHHHHH
-0.122: [35]
2.2: Gal(b1-3)GalNAc
-0.137: Gal(a1-3)Gal(b1-4)GlcNAc | Gal(b1-3)Gal(b1-4)GlcNAc | Gal(b1-3)GlcNAc
-0.132: [51]
-0.113: [23]
-0.128: [36]
-0.146: [8] | [47]
-0.131: [33]
-0.118: [49]
-0.14: Fuc(a1-3)GlcNAc | [18] | [45] | [48]
-0.145: [10] | [14] | [30] | Fuc(b1-3)GlcNAc | Gal(a1-3)Gal(b1-4)Glc
-0.13: [12]
-0.136: [13] | [44]
-0.147: [2] | [52] | [53]
-0.144: [15] | [32] | [46]
-0.138: [11] | [22] | Gal(a1-3)Gal(b1-3)GlcNAc | [38] | Gal(a1-3)GalNAc | Gal(b1-2)Gal
-0.143: [3] | [6] | [20] | [29] | [37] | [40] | Gal(a1-6)Glc
-0.148: [26] | Fuc(a1-4)GlcNAc | [39]
-0.149: [5] | [31]
-0.126: Gal(b1-3)Gal
-0.12: Gal(b1-3)GalNAc(b1-3)Gal
-0.141: [17] | [27] | [28] | Gal(a1-4)Gal(b1-4)GlcNAc | Gal(a1-4)GlcNAc | Gal(b1-3)GlcNAc(b1-2)Man | [54]
-0.125: [43] | [50]
-0.139: [19] | [21] | [24] | [25] | Gal(a1-2)Gal | [34] | [42]
-0.142: all other assays above
